Results: the supplement of paper PMC4967469
A lower IC50 marks a more sensitive line; fits outside the tested doses are given as limits. AUC, from the same fit, is the share of area under the viability curve across the 256-fold dose range; the more sensitive the line, the further below 1. Where the top dose is marked as inferred, it is not printed in the source and was worked back from the curve model.

Columns and labels:
Experiment in all cases: Viability of human cancer cell lines after 72 h of drug (GDSC screen)
CAY10603 = compound: CC(C)(C)OC(=O)Nc1ccc(-c2cc(C(=O)NCCCCCCC(=O)NO)no2)cc1 [CAY10603]; settings: top dose 20 µM; top dose inferred
Experimental: (§1)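 Human cancer cell lines in 384-well plates, medium with 10% serum, drug for 72 h over a 256-fold dose range (nine 2-fold or five 4-fold steps up to the top dose). Adherent lines were fixed and stained with the nucleic acid dye Syto60, suspension lines read with resazurin; signal relative to control wells, capped at 0 and 100%. One two-parameter sigmoid per drug and line, fitted in a mixed model over all curves with the slope shared within a line.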

CH5424802 = compound: CCc1cc2c(cc1N1CCC(N3CCOCC3)CC1)C(C)(C)c1[nH]c3cc(C#N)ccc3c1C2=O [CH5424802]; settings: top dose 5.12 µM; top dose inferred
Experimental: as §1

ACHP (KIN001-260) = compound: N#Cc1c(C2CCNCC2)cc(-c2c(O)cccc2OCC2CC2)nc1N [ACHP (KIN001-260)]; settings: top dose 20 µM; top dose inferred
Experimental: as §1

| Cell Line | AUC (CAY10603) | IC50 (CAY10603) [µM] | AUC (CH5424802) | IC50 (CH5424802) [µM] | AUC (ACHP (KIN001-260)) | IC50 (ACHP (KIN001-260)) [µM] |
| --- | --- | --- | --- | --- | --- | --- |
| HAL-01 (lymphoblastic leukaemia, suspension) | 0.333 | 0.456 | 0.763 | 1.64 | 0.889 | 18.2 |
| HC-1 (hairy cell leukaemia, suspension) | 0.256 | 0.258 | 0.983 | > 5.12 | 0.838 | 12.7 |
| HCC70 (breast, adherent) | 0.452 | 0.928 | 0.931 | > 5.12 | 0.979 | > 20 |
| HCC1143 (breast, adherent) | 0.62 | 3.06 | 0.884 | > 5.12 | 0.905 | > 20 |
| HCC1187 (breast, suspension) | 0.736 | 5.66 | 0.968 | > 5.12 | 0.984 | > 20 |
| HCC1500 (breast, adherent) | 0.627 | 2.84 | 0.972 | > 5.12 | 0.949 | > 20 |
| HCC1599 (breast, suspension) | 0.36 | 0.484 | 0.917 | > 5.12 | 0.948 | > 20 |
| HCC1806 (breast, adherent) | 0.606 | 2.38 | 0.972 | > 5.12 | 0.969 | > 20 |
| HCC-33 (small cell lung carcinoma, adherent) | 0.405 | 0.684 | 0.984 | > 5.12 | 0.972 | > 20 |
| HCC-44 (lung adenocarcinoma, adherent) | 0.386 | 0.614 | 0.98 | > 5.12 | 0.905 | > 20 |
| HCC-827 (lung adenocarcinoma, adherent) | 0.654 | 3.59 | 0.966 | > 5.12 | 0.982 | > 20 |
| HCE-4 (oesophagus, adherent) | 0.986 | > 20 | 0.99 | > 5.12 | 0.992 | > 20 |
| HD-MY-Z (Hodgkin lymphoma, adherent) | 0.49 | 1.17 | 0.968 | > 5.12 | 0.886 | > 20 |
| HDLM-2 (Hodgkin lymphoma, suspension) | 0.887 | > 20 | 0.988 | > 5.12 | 0.989 | > 20 |
| HDQ-P1 (breast, adherent) | 0.551 | 1.76 | 0.923 | > 5.12 | 0.985 | > 20 |
| HEL (acute myeloid leukaemia, semi-adherent) | 0.208 | 0.21 | 0.977 | > 5.12 | 0.91 | > 20 |
| HH (T-cell leukaemia, suspension) | 0.345 | 0.402 | 0.974 | > 5.12 | 0.683 | 4.84 |
| HL-60 (acute myeloid leukaemia, suspension) | 0.368 | 0.564 | 0.989 | > 5.12 | 0.956 | > 20 |
| HLE (liver, adherent) | 0.434 | 0.836 | 0.971 | > 5.12 | 0.97 | > 20 |
| HMV-II (melanoma, adherent) | 0.609 | 2.66 | 0.978 | > 5.12 | 0.873 | > 20 |
| HN (head and neck, adherent) | 0.868 | 16.4 | 0.988 | > 5.12 | 0.989 | > 20 |
| HO-1-N-1 (head and neck, adherent) | 0.635 | 2.86 | 0.987 | > 5.12 | 0.982 | > 20 |
| HO-1-u-1 (head and neck, adherent) | 0.568 | 1.9 | 0.987 | > 5.12 | 0.966 | > 20 |
| HOP-62 (lung adenocarcinoma, adherent) | 0.422 | 0.764 | 0.979 | > 5.12 | 0.935 | > 20 |
| HOP-92 (large cell lung carcinoma, adherent) | 0.764 | 8.39 | 0.984 | > 5.12 | 0.984 | > 20 |

| Cell Line | AUC (CAY10603) | IC50 (CAY10603) [µM] | AUC (CH5424802) | IC50 (CH5424802) [µM] | AUC (ACHP (KIN001-260)) | IC50 (ACHP (KIN001-260)) [µM] |
| --- | --- | --- | --- | --- | --- | --- |
| HOS (osteosarcoma, adherent) | 0.991 | > 20 | 0.992 | > 5.12 | 0.992 | > 20 |
| HPAC (pancreas, adherent) | 0.682 | 5 | 0.969 | > 5.12 | 0.961 | > 20 |
| HPAF-II (pancreas, adherent) | 0.896 | > 20 | 0.943 | > 5.12 | 0.97 | > 20 |
| HSC-3 (head and neck, adherent) | 0.739 | 5.32 | 0.989 | > 5.12 | 0.988 | > 20 |
| HT (B-cell lymphoma, suspension) | 0.296 | 0.351 | 0.987 | > 5.12 | 0.919 | > 20 |
| HT-3 (cervix, adherent) | 0.701 | 4.64 | 0.985 | > 5.12 | 0.975 | > 20 |
| HT-144 (melanoma, adherent) | 0.981 | > 20 | 0.978 | > 5.12 | 0.98 | > 20 |
| HT-1080 (fibrosarcoma, adherent) | 0.629 | 2.72 | 0.988 | > 5.12 | 0.989 | > 20 |
| HT-1376 (bladder, adherent) | 0.919 | > 20 | 0.985 | > 5.12 | 0.985 | > 20 |
| HTC-C3 (thyroid, adherent) | 0.418 | 0.723 | 0.958 | > 5.12 | 0.973 | > 20 |
| Hep 3B2_1-7 (liver, adherent) | 0.604 | 2.4 | 0.984 | > 5.12 | 0.986 | > 20 |
| Hs633T (fibrosarcoma, adherent) | 0.422 | 0.799 | 0.99 | > 5.12 | 0.968 | > 20 |
| Hs746T (stomach, adherent) | 0.397 | 0.59 | 0.979 | > 5.12 | 0.919 | > 20 |
| HuCCT1 (biliary tract, adherent) | 0.601 | 2.45 | 0.98 | > 5.12 | 0.936 | > 20 |
| HuO-3N1 (osteosarcoma, adherent) | 0.776 | 10.6 | 0.977 | > 5.12 | 0.98 | > 20 |
| IGR-37 (melanoma, adherent) | 0.51 | 1.33 | 0.989 | > 5.12 | 0.95 | > 20 |
| IMR-5 (neuroblastoma, adherent) | 0.301 | 0.384 | 0.942 | > 5.12 | 0.955 | > 20 |
| IPC-298 (melanoma, adherent) | 0.427 | 0.793 | 0.981 | > 5.12 | 0.951 | > 20 |
| IST-SL1 (small cell lung carcinoma, semi-adherent) | 0.25 | 0.234 | 0.965 | > 5.12 | 0.892 | > 20 |
| J82 (bladder, adherent) | 0.847 | 14.7 | 0.987 | > 5.12 | 0.971 | > 20 |
| JAR (urogenital system, adherent) | 0.578 | 2.03 | 0.988 | > 5.12 | 0.98 | > 20 |
| JHH-2 (liver, adherent) | 0.545 | 1.68 | 0.975 | > 5.12 | 0.98 | > 20 |
| JHH-4 (liver, adherent) | 0.52 | 1.41 | 0.962 | > 5.12 | 0.911 | > 20 |
| JHH-6 (liver, adherent) | 0.708 | 4.88 | 0.987 | > 5.12 | 0.975 | > 20 |
| JHH-7 (liver, adherent) | 0.667 | 3.52 | 0.984 | > 5.12 | 0.989 | > 20 |

| Cell Line | AUC (CAY10603) | IC50 (CAY10603) [µM] | AUC (CH5424802) | IC50 (CH5424802) [µM] | AUC (ACHP (KIN001-260)) | IC50 (ACHP (KIN001-260)) [µM] |
| --- | --- | --- | --- | --- | --- | --- |
| JHU-011 (head and neck, adherent) | 0.458 | 0.96 | 0.978 | > 5.12 | 0.972 | > 20 |
| JM1 (B-cell lymphoma, suspension) | 0.171 | 0.155 | 0.964 | > 5.12 | 0.952 | > 20 |
| JSC-1 (B-cell lymphoma, suspension) | 0.232 | 0.211 | 0.981 | > 5.12 | 0.866 | 17.6 |
| JVM-2 (lymphoid neoplasm, suspension) | 0.728 | 6.56 | 0.975 | > 5.12 | 0.939 | > 20 |
| JVM-3 (lymphoid neoplasm, suspension) | 0.438 | 0.842 | 0.984 | > 5.12 | 0.932 | > 20 |
| JiyoyeP-2003 (Burkitt lymphoma, suspension) | 0.405 | 0.709 | 0.99 | > 5.12 | 0.956 | > 20 |
| KALS-1 (glioma, adherent) | 0.596 | 2.53 | 0.976 | > 5.12 | 0.955 | > 20 |
| KARPAS-45 (lymphoblastic leukaemia, suspension) | 0.262 | 0.302 | 0.974 | > 5.12 | 0.852 | 11.7 |
| KARPAS-422 (B-cell lymphoma, suspension) | 0.471 | 1.04 | 0.978 | > 5.12 | 0.954 | > 20 |
| KARPAS-620 (haematopoietic neoplasm, suspension) | 0.204 | 0.198 | 0.989 | > 5.12 | 0.877 | 15.3 |
| KE-37 (lymphoblastic leukaemia, suspension) | 0.237 | 0.276 | 0.992 | > 5.12 | 0.929 | 19.6 |
| KG-1 (acute myeloid leukaemia, suspension) | 0.35 | 0.506 | 0.906 | > 5.12 | 0.876 | 16.2 |
| KLE (endometrium, adherent) | 0.6 | 2.73 | 0.971 | > 5.12 | 0.97 | > 20 |
| KM-H2 (Hodgkin lymphoma, suspension) | 0.992 | > 20 | 0.975 | > 5.12 | 0.973 | > 20 |
| KMOE-2 (acute myeloid leukaemia, suspension) | 0.425 | 0.799 | 0.851 | 3.3 | 0.936 | > 20 |
| KMRC-1 (kidney, adherent) | 0.592 | 2.27 | 0.986 | > 5.12 | 0.986 | > 20 |
| KMS-11 (myeloma, suspension) | 0.379 | 0.612 | 0.991 | > 5.12 | 0.938 | > 20 |
| KMS-12-BM (myeloma, suspension) | 0.321 | 0.438 | 0.991 | > 5.12 | 0.853 | 11.6 |
| KNS-81-FD (glioma, adherent) | 0.555 | 1.86 | 0.972 | > 5.12 | 0.981 | > 20 |
| KON (head and neck, adherent) | 0.954 | > 20 | 0.986 | > 5.12 | 0.987 | > 20 |
| KOPN-8 (B-cell leukaemia, suspension) | 0.214 | 0.213 | 0.98 | > 5.12 | 0.917 | > 20 |
| KOSC-2 (head and neck, adherent) | 0.554 | 1.77 | 0.978 | > 5.12 | 0.984 | > 20 |
| KP-2 (pancreas, adherent) | 0.647 | 3.31 | 0.984 | > 5.12 | 0.982 | > 20 |
| KP-3 (pancreas, adherent) | 0.679 | 4.39 | 0.966 | > 5.12 | 0.968 | > 20 |
| KP-4 (pancreas, adherent) | 0.664 | 3.49 | 0.988 | > 5.12 | 0.985 | > 20 |
